About 5,700 (2.6%) of roughly 220,000 compounds were called active. This list was built around the results that the source calls inconclusive (neither active nor inactive); the mix of calls is not that of the screen. Calls follow the shape of the dose curve; as a rule, active = well fitted inhibition curve with a large enough effect; inconclusive = small, poorly fitted or top-dose-only effect; inactive = no such curve, though single readings can be large or run the other way. A potency beside an inconclusive call is a rough fit, not a confirmed value.
Target: Lysine-specific demethylase 5B (Homo sapiens) (UniProt Q9UGL1)
Experiment: Primary screen for KDM5B Histone Demethylases FDH-coupled qHTS; also: nearly all actives have a fitted effect of over 70% in size; as to activity change, negative = inhibition: 0% is about no effect
Details: FDH-coupled NADH fluorescence (FDH is formaldehyde dehydrogenase); activity change, negative = inhibition: at 57.7 µM (top of the series) unless noted
Method in brief: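 Coupled FDH/NAD⁺ fluorescence readout. KDM5BΔAP 200 nM final; compound titration, 10 min RT preincubation; substrate mix 12.5 µM H3K4me3, 25 µM 2-OG, 50 µM Fe(II), 100 µM ascorbate, 0.25 mM NAD⁺, 0.25 U/mL FDH; ΔRFU over 30 min.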
Potency is read from the fitted curve at half-maximal effect; tags tell the direction and shape of the fitted curve.

UniProt Q9UGL1, sequence (Q9UGL1 whole entry, looked up): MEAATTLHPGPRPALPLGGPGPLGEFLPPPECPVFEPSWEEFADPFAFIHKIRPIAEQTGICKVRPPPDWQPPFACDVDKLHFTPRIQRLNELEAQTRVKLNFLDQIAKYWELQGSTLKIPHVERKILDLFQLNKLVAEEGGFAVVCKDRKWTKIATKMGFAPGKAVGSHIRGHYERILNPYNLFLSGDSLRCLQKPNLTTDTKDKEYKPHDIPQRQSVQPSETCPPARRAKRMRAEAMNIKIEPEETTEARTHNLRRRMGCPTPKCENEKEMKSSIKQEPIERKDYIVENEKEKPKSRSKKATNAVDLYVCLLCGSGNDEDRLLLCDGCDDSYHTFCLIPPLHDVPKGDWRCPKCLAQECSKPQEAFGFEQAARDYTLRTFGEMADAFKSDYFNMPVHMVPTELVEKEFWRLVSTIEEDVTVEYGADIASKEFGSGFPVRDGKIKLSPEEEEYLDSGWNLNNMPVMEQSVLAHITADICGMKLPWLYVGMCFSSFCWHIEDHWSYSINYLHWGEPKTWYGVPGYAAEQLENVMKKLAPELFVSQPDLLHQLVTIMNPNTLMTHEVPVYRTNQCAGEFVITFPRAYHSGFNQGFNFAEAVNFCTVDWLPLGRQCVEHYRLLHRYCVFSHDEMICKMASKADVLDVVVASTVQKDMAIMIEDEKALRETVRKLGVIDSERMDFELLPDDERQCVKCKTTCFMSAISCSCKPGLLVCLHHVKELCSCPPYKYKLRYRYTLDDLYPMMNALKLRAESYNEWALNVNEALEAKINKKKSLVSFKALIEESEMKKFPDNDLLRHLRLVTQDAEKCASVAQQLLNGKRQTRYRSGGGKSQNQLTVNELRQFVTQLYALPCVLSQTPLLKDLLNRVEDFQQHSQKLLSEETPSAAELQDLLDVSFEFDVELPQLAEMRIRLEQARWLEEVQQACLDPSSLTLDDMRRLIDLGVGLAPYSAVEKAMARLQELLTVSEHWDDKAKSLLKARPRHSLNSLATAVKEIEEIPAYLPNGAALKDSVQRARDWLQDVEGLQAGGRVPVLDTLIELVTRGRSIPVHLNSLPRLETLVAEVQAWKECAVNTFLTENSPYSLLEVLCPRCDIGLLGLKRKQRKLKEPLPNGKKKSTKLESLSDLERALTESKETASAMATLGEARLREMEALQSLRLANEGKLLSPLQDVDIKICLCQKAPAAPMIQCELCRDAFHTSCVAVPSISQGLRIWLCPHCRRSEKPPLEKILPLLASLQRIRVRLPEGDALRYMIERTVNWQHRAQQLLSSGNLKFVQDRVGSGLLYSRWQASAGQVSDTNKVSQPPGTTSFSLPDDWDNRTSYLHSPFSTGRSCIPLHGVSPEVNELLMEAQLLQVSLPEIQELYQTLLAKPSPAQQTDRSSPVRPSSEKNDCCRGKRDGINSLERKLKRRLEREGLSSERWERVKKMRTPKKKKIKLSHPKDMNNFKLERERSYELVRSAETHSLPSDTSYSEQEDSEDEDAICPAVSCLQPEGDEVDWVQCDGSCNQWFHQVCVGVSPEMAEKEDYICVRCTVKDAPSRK

SMILES | activity change, negative = inhibition | Potency
Cc1cc(C(=O)N[C@@H]2CN(c3ccncn3)C[C@H]2CN(C)C)n[nH]1 | inactive: 6.04% | –
COCCNC(=O)c1ccc(-c2ccc(N3CCCCCC3)nc2)cc1 | – | inconclusive: 3.16 µM [inhibitor, full curve, poor fit]
CCc1ccc(Nc2nc(-c3ccccc3F)no2)cc1 | inactive: -6.57% | –
Cc1cccc(-c2nc3cc(NC(=O)/C=C/c4ccco4)ccc3o2)c1 | – | inconclusive: 17.8 µM [inhibitor, single point]
O=C(NCCN1CCCCC1)c1ccc(-c2ccc(N3CCSCC3)nc2)cc1 | – | active: 28.2 µM
Cc1ccc(C)c(NC(=O)CCn2nc(C)c3c(C)n(-c4ccccc4)nc3c2=O)c1 | – | inconclusive: 1.26 µM [inhibitor, full curve, poor fit]
CN1[C@@H](CCC(=O)NCc2cccs2)CNC(=O)[C@@H]2[C@H]1CCN2Cc1cccc(Cl)c1 | inactive: -19.2% | –
NC1=NC(c2ccccc2)C=C(c2ccccc2)O1 (stereo not drawn) | inactive: -13.1% | –
COc1ccc(C(=O)NCC(=O)N2CCCCCCNC(=O)CC2c2ccccc2)c(OC)n1 (stereo not drawn) | inactive: -5.1% | –
CCOC(=O)c1csc(N)c1-c1ccc([N+](=O)[O-])cc1 | – | inconclusive: 35.5 µM [inhibitor, partial curve, poor fit]
Cc1ccc(C)c(-n2nc(-c3c(C)nc4scc(CC(=O)NC(C)C(C)C)n4c3=O)cc2C)c1 (stereo not drawn) | – | inconclusive: 31.6 µM [inhibitor, single point]
CN(C)C[C@@H]1CN(c2ccncn2)C[C@H]1NC(=O)c1ccc(Br)o1 | – | inconclusive: 35.5 µM [inhibitor, partial curve]
CCC1=C(C(=O)OC)C(c2ccc(C)cc2)N2C(CC(=O)N3CCCC3)=CSC2=N1 (stereo not drawn) | – | inconclusive: 20 µM [inhibitor, partial curve, poor fit]
Cc1c(CC(=O)O)c(=O)oc2cc(OCc3ccc4ccccc4c3)ccc12 | – | inconclusive: 28.2 µM [inhibitor, partial curve, poor fit]
O=C(CCn1ccc2cc(S(=O)(=O)N3CCCC3)ccc21)NCc1cccc(F)c1 | – | inconclusive: 31.6 µM [inhibitor, single point]
FC(F)(F)c1ccc(Cl)c(N/N=C/c2ccccc2Cl)c1 | – | inconclusive: 39.8 µM [inhibitor, single point]
COc1cccc(CNc2ncnc3c2CN(C2CCCNCC2)C(=O)CN3C)c1 (stereo not drawn) | – | inconclusive: 50.1 µM [inhibitor, partial curve, poor fit]
Cn1cccc1CN1CCC2(CC1)COc1ccccc1[S+](=O)([O-])N2 | – | inconclusive: 70.8 µM [inhibitor, partial curve, poor fit]

Reference: PubChem BioAssay AID1347165 (National Center for Advancing Translational Sciences (NCATS), 2019)
